Source: PubChem BioAssay AID1159614 (National Center for Advancing Translational Sciences (NCATS), 2016)
About 65 (0.1%) of roughly 45,000 compounds were called active. Calls follow the shape of the dose curve; as a rule, active = well fitted activation curve with a large enough effect; inconclusive = small, poorly fitted or top-dose-only effect; inactive = no such curve, though single readings can be large or run the other way. The list shows a part of the results.

Target: Galactocerebrosidase (Homo sapiens) (UniProt P54803)
Sequence of UniProt P54803 (P54803 whole entry, looked up): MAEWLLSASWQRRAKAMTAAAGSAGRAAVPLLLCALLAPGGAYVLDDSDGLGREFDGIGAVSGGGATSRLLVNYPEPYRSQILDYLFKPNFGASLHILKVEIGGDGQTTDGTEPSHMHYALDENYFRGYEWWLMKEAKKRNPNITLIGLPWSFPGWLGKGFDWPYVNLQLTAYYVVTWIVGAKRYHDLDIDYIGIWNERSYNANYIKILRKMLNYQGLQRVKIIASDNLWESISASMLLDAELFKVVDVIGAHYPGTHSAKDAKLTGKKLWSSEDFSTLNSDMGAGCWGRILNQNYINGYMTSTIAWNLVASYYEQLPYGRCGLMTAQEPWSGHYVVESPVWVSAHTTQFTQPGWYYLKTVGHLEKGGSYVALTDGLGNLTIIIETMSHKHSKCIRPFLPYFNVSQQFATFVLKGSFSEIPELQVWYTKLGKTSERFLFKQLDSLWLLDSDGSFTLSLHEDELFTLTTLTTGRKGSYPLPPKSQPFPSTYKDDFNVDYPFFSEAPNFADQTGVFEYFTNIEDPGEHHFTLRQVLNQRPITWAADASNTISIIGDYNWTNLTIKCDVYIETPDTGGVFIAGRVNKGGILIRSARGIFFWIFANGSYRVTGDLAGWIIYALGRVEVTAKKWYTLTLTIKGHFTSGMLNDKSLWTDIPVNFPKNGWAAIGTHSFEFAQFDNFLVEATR
Assay: A Novel Cell-Based Assay to Identify Small Molecules for B -Galactocerebrosidase; also: 0% is about no effect; nearly all actives have a fitted effect of over 65% in size
Details: 145M-Twi-hGALC-G270D cells (Twitcher mouse brain line with human GALC G270D), HMU-beta-Gal fluorescence, 48 h; series mostly up to 57.5 µM; activation: at the top concentration
How it was run: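 Brain-derived Twitcher mouse 145M-Twi cells stably expressing human GALC-G270D or wild-type GALC, treated live, then residual GALC activity read by fluorescence of HMU-b-Gal substrate (0.1 mM final) in citrate-phosphate buffer pH 5.2 with sodium taurocholate. Signal increase indicates enhancement.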

activation, inactive:
CCOc1ccc(CNC(=O)Nc2ccc3c(c2)N(C)C(=O)c2ccccc2S3)cc1 -28%
O=S(=O)(c1ccccc1)c1nnn2c1nc(N1CCN(c3ccccc3)CC1)c1cc(Cl)ccc12 -12%
COc1ccc2sc(N(Cc3cccnc3)C(=O)C3COc4ccccc4O3)nc2c1 (stereo unspecified) -1.6%
Cc1ccc(-n2ncc3c(NC4CCCC4)ncnc32)cc1 -9.24%
CCOC(=O)/C(C#N)=C/c1ccc(-c2ccccc2)o1 -7.03%
N=C(N)c1ccc(OCCCCCOc2ccc(C(=N)N)cc2)cc1 -18.3%
COc1ccc2sc(N(Cc3cccnc3)C(=O)c3cccs3)nc2c1 -14.4%
Cc1ccc2c(c1)C(c1ccccc1)N(C(=O)c1ccc(S(=O)(=O)N3CCCC3)cc1)CC(=O)N2 (stereo unspecified) -12.7%
Cn1c(=O)c2nc3ccc(NC(=O)C(F)(F)F)cc3nc2n(C)c1=O -11.3%
Cc1ccc(NC(=O)CN2C(=O)CSc3ccc(S(=O)(=O)N(C)C)cc32)c(C)c1 -5.67%
Cc1nc(SCc2ccccc2Cl)c(C#N)c(C)c1C -14.7%
Cc1cc(C)cc(NC(=O)c2sc3nc4n(c(=O)c3c2C)N=C(c2ccc(F)cc2)CS4)c1 -15.6%
O=C(Cn1cc2c(n1)CCCC2)Nc1cc(C(F)(F)F)ccc1Cl -11.3%
CCCn1cc(S(=O)(=O)c2ccccc2)c(=O)c2cc(F)c(N3CCCCCC3)cc21 -7.46%
COc1cccc(-c2nn(C)c3sc(C(=O)NCCc4cccc(C)c4)cc23)c1 -4.8%
Cc1nnc(N2CCN(c3cccc(Cl)c3)CC2)c2c1nnn2Cc1ccc(F)cc1 -9.67%
CCc1cccc(NC(=O)CSc2n[nH]c(-c3ccccc3Cl)n2)c1 -14.6%
O=C(Nc1ccc2nc(SCCOc3ccccc3Cl)sc2c1)c1ccco1 -8.35%
Cn1c(NCCN(CCO)CCCc2ccc([N+](=O)[O-])cc2)cc(=O)n(C)c1=O -16.8%
CCOC(=O)C1CCCN(C(=O)Cn2ncc3c(C)n(Cc4ccc(F)cc4)c(C)c3c2=O)C1 (stereo unspecified) -3.1%
CCOc1ccc(OCC)c(NC(=O)c2cnn(-c3ccc(F)cc3)c2C2CCN(C(=O)OC(C)(C)C)CC2)c1 -15.2%
CCCNC(=O)Cn1ncc2c3ccccc3n(CCC)c2c1=O -4.57%
COc1ccc(-c2ccc(-c3noc(-c4cc(OC)cc(OC)c4)n3)c(OC)n2)cc1 -13.7%
COC(=O)Nc1nc2ccc(C(=O)c3ccccc3)cc2[nH]1 -9.67%
CCOc1ccc(-n2c(C)nc3cc(C(=O)NCc4ccc(C)cc4)ccc32)cc1 -34.9%
COc1ccc(-n2ccnc(NCc3cccs3)c2=O)cc1 -6.66%
CCOc1ccc2c(c1)c(=O)c(C(=O)c1ccc3c(c1)OCO3)cn2Cc1cccc(F)c1 -12.2%
O=c1c2c3c(sc2nnn1Cc1ccc(F)cc1)CCCC3 -17.6%
CC1CCCN(c2nc(-c3ccccc3O)nc3ccccc23)C1 (stereo unspecified) -7.35%
CCn1c(=O)cc(SCC(=O)Nc2cc(Cl)ccc2OC)c2ccccc21 -11.1%
Cc1ccc(C(=O)Nc2nnc(S(=O)(=O)N(C)Cc3ccc(F)cc3)s2)cc1 -4.43%
CCOc1ccc(-c2nnc(SCC(=O)Oc3ccccc3)o2)cc1 -1.83%
CCN(C(=O)Cn1nc(Cc2ccncc2)c2ccccc2c1=O)c1cccc(Cl)c1 -11.7%
COc1ccc(CCNC(=O)CN2C(=O)COc3ccc(C)cc32)cc1OC -3.82%
COc1ccccc1N(CC(=O)N1CCC(C)CC1)S(=O)(=O)c1ccc(C)cc1 -30.8%
c1ccc2sc(SSc3nc4ccccc4s3)nc2c1 -11.7% [at 23.8 µM]
CCCCN(CC)CCCNC(=O)CN1C(=O)CSc2ccc(S(=O)(=O)N3CCOCC3)cc21 -10.9%
CCOC(=O)c1cc(-c2ccc(OC)c(S(=O)(=O)NC3CCCCC3)c2)on1 -15.4%
CCn1nc(C)c(CCN(C)C(=O)Nc2ccc(C)c(Cl)c2)c1C -1.67%
Cc1ccc(C(=O)NCc2ccc3c(c2)CCN3C(=O)c2ccc(C)cc2)cc1 -17.2%
COCCNC(=O)c1ccc(-n2c(-c3ccccc3)cc3c2CCC(C)C3)cc1 (stereo unspecified) -16%
CCc1ccc(Cn2c(CNS(=O)(=O)c3ccc([N+](=O)[O-])cc3)nc3cccnc32)cc1 -23.8%
O=C(Nc1ccc2nc3n(c(=O)c2c1)CCCCC3)C(=O)Nc1ccccc1F -2.47%
COc1cc(NC(=O)c2nn(C)c3c2CS(=O)(=O)c2ccccc2-3)cc(OC)c1 -11.4%
COCCCNC(=O)c1c(-c2ccccc2)c(-c2ccccc2)nn(C)c1=O -3.09%
Cc1cccc(Nc2nn3c(=O)c4cc5c(cc4nc3s2)OCO5)c1 -8.61%
COc1cc(N2C(=O)CSC23C(=O)N(Cc2cccc(F)c2)c2ccccc23)cc(OC)c1OC (stereo unspecified) -28.2%
COc1ccc(NC(=O)c2sc3nc4c(cc3c2N)CCCCCC4)c(OC)c1 -23.8%
CCOC(=O)Cn1c(=O)n(CC2CCCO2)c2nc(-c3ccc(OCC)cc3)nc(C(N)=O)c21 (stereo unspecified) -10.2%
CCN(CC)CCNC(=O)CN1C(=O)COc2ccc(S(=O)(=O)N3CCOCC3)cc21 2.76%
Cc1cc(Nc2cccc(Cl)c2)nc2ccc(NC(=O)Cc3ccc(Cl)cc3)cc12 -8.24%
Cc1ccc(-n2ncc(C(=O)NCc3ccccc3)c2C2CCN(C(=O)OC(C)(C)C)CC2)cc1 5.42%
COc1ccc(CCNC(=O)c2ccc3c(c2)CCN3S(=O)(=O)c2ccccc2)cc1OC -3.62%
CCOc1ccccc1NC(=O)Cn1c(=O)n(Cc2ccccc2)c(=O)c2c1c1cc(C)ccc1n2C -2.26%
COc1ccccc1OCc1nnc(-c2ccccc2)o1 -23.5%
CCCCOC(=O)c1ccc(OC(=O)c2sc3ncn(Cc4ccccc4Cl)c(=O)c3c2C)cc1 -4.22%
CCOc1ccc(CNCCCSc2nnnn2C)cc1OC -15.6%
O=C(CSc1nc(=O)n(Cc2ccco2)c2c1CCC2)Nc1cccc(F)c1 -19.1%
COc1cccc(CNC(=O)Cc2csc3nc(-c4ccccc4)cn23)c1 -3.29%
Cc1ccc(Cl)cc1Nc1sc(C(=O)c2ccc(F)cc2)c(N)c1S(C)(=O)=O -10.8%
COc1ccccc1N1CCN(C(c2ccc(Cl)cc2)c2nnc(-c3cccc(F)c3)o2)CC1 (stereo unspecified) -15.8%
O=C(Nc1ccc(Cl)c(-c2nc3ccccc3o2)c1)c1ccc(-c2cccc([N+](=O)[O-])c2)o1 -8.61%
Cc1ccccc1Nc1c(-c2ccc(Br)cc2O)nc2sccn12 -7.28%
CCOc1ccc(NC(=O)Cn2cc(C(=O)c3ccc(OC)cc3)c(=O)c3cc4c(cc32)OCO4)cc1 -22%
COc1ccc(CC(=O)Nc2sc3c(c2C(=O)Nc2cccc(C)c2)CCCCC3)cc1 -23.8%
COc1ccccc1CNC(=O)c1cnc(N(C)C)nc1 -0.98%
CCCSc1oc(-c2ccco2)nc1S(=O)(=O)c1ccc(Cl)cc1 -32.7%
CC1=C(c2ccc(C(C)C)cc2)S(=O)(=O)NC1=NCc1ccccc1C -15.6%
CC1CCN(C(=O)CSc2c3c(nc4ccc(Cl)cc24)CCCC3)CC1 3.21%
CN(C)CCN(C(=O)c1ccco1)c1nc2c(F)cc(F)cc2s1 -6.13%
O=C(COc1ccc(F)cc1)Nc1nnc(S(=O)(=O)N2CCc3ccccc32)s1 -50.9%
COc1ccc(S(=O)(=O)N(CC(=O)Nc2ccc(F)c(Cl)c2)c2ccc(C)cc2)cc1OC -17.6%
CCOc1ccc(N(Cc2ccccc2)C(=O)c2nc(SCC)ncc2Cl)cc1 -14.2%
Cc1cccc(NC(=O)CSc2nc3ccccc3nc2N2CCC(C)CC2)c1 -8.73%
Cc1nc2c3ccccc3nc(NNC(=O)CCC(=O)N3CCN(c4cccc(Cl)c4)CC3)n2n1 -16.6%
Cc1ccc(N2CC(C(=O)NCCS(=O)(=O)N3CCN(c4ccccc4F)CC3)CC2=O)cc1 (stereo unspecified) -9.92%
Cc1ccc(NC(=O)CSc2nc3ccc(Br)cc3[nH]2)c(C)c1 -6.32%
Cc1ccc(Nc2cc(C)nc(-n3nc(C)cc3C)n2)cc1 -5.9%
O=C(Nc1ccc(OC(F)(F)F)cc1)C1CCN(S(=O)(=O)c2ccc3[nH]c(=O)ccc3c2)CC1 -8.99%
COc1cccc2c1C(=O)c1c(O)c3c(c(O)c1C2=O)C[C@@](O)(C(=O)CO)C[C@@H]3O[C@H]1C[C@H](N)[C@H](O)[C@H](C)O1 -9.78%
O=C(NC1CCCCC1)c1ccc2c(c1)sc1nc(-c3ccc(F)cc3)cn12 -9.95%
CCOCCc1nnc(NC(=O)C(=O)c2cc(C)n(-c3cccc(C)c3)c2C)s1 -14.3%
Cc1ccc(-c2noc(CNC(=O)COc3cc(C)c(Br)c(C)c3)n2)cc1 -15.1%
Cn1cnc(S(=O)(=O)N2CCC(C(=O)Nc3ccc(F)cc3F)CC2)c1 -14.3%
CCOc1ccc(CNC(=O)c2ccc3c(c2)sc2nc(-c4ccccc4)cn23)cc1 -19.8%
O=C(NC1CCCCC1)c1ccc2c(c1)N(Cc1cccc(F)c1)C(=O)c1ccccc1S2 -3.6%
COc1ccc2nc(NC(=O)c3nc(S(=O)(=O)Cc4ccccc4F)ncc3Cl)sc2c1 -19%
Cc1ccc(-n2nc(C(=O)N3CCN(c4ccc(F)cc4)CC3)c(=O)n(C)c2=O)cc1 -15.9%
COC(=O)c1ccc(CSc2nc3c([nH]c4ccccc43)c(=O)n2-c2ccc(F)cc2)o1 3.31%
O=C(Cn1c(=O)n(-c2ccccc2)c(=O)c2ccc(C(=O)NCc3ccc4c(c3)OCO4)cc21)Nc1ccc(F)cc1 5.2%
COc1cc(OC)c(NC(=O)Cn2c(=O)c(C(F)(F)F)nc3ccccc32)cc1Cl 4.97%
CCc1cccc(NC(=O)Cn2c(=O)n(-c3ccccc3C)c(=O)c3c2c2cc(C)ccc2n3C)c1 -1.46%
COc1ccc(NCc2cc3cc4c(cc3n(CC(=O)Nc3cccc(F)c3)c2=O)OCO4)cc1 0.0932%
Cc1cccc(N2CCN(S(=O)(=O)c3cn(C)c(C)n3)CC2)c1C -9.88%
CCOc1ccccc1C(=O)Oc1c(S(=O)(=O)c2ccc(C)cc2)c(C)nn1-c1ccccc1 2.66%
CCCCN(C)CCCNC(=O)Cn1ncc2c3ccccc3n(Cc3cccc(Cl)c3)c2c1=O -21.1%
